Reference: PMC4336329 (PLoS ONE, 2015)
About 14,000 (4.5%) of roughly 310,000 compounds showed an effect of 50% or more. Effects have a minus sign here. Some of the results follow.

target: human ether-à-go-go-related gene (hERG) potassium channel (human, UniProt Q12809); assay: primary screen, population patch clamp on CHO cells stably expressing hERG
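Further: peak tail current of the secondary pulse compared with the same well before compound.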

Chain of human ether-à-go-go-related gene (hERG) potassium channel (Q12809 whole entry, looked up): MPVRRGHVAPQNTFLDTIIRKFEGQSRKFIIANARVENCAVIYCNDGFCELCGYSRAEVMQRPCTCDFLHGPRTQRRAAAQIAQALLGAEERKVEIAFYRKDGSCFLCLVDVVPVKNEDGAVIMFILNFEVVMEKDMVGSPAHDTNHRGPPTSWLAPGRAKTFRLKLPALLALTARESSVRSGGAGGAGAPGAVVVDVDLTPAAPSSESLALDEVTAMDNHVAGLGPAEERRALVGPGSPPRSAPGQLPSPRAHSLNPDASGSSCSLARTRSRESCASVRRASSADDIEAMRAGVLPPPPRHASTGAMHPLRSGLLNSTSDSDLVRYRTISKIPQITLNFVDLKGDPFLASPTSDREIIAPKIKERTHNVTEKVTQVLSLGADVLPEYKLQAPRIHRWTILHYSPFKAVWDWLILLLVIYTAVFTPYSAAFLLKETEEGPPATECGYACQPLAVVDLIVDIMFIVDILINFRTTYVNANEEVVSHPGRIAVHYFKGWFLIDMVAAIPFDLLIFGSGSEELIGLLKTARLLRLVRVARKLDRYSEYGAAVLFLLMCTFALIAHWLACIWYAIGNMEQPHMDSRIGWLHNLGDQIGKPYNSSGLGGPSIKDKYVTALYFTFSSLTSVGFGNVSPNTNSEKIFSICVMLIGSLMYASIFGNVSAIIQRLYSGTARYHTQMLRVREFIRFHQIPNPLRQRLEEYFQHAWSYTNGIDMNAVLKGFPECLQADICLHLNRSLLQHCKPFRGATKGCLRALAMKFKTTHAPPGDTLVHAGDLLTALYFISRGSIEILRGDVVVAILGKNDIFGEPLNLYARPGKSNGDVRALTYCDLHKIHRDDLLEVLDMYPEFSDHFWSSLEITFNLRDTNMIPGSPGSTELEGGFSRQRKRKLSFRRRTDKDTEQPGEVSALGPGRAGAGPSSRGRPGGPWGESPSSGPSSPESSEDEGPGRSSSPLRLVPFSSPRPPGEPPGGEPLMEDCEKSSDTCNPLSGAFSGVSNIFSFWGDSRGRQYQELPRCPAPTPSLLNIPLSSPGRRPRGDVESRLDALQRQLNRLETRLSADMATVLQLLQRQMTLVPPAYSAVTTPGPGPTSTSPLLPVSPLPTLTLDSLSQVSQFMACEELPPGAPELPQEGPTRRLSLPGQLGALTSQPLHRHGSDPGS

In order of falling “hERG current change (%, negative = inhibition) at 10uM” value:
1. COc1cc(NC(=S)NCc2cccnc2)cc(OC)c1OC  27.5%
2. Cc1ccc(S(=O)(=O)NCCn2nc(C)nc2C)cc1  24.8%
3. O=C(Cc1ccc(Cl)cc1)Nc1ccc(S(=O)(=O)Nc2ncccn2)cc1  23.3%
4. O=C(O)c1ccccc1-c1ccccc1C(=O)NCc1ccccc1F  21.9%
5. O=Cc1cn(CC(=O)Nc2ccccc2)c2ccccc12  18.1%
6. CN(C)C=C1C(=O)c2ccccc2C1=O  17.3%
7. COc1cccc(NC(=O)CSc2nnc(NC(=O)C3CC3)s2)c1  17.1%
8. CCCNC(=O)CN1C(=O)COc2ccc(S(=O)(=O)N3CCCCCC3)cc21  16.5%
9. CCOc1ccc(C2/C(=C(\O)c3ccc4c(c3)OCCO4)C(=O)C(=O)N2CCCN2CCOCC2)cc1 (stereo not shown)  16%
10. COc1ccc(-c2ccc(C(=O)C3CC3)cc2)cc1  14.7%
11. CC(O)[C@H]1CN=C(N)N1CC(C)(C)C (stereo partly shown)  14.1%
12. CCOC(=O)CC1CCCCN1C(=O)CCCn1nnnc1CN1CCOCC1 (stereo not shown)  13.3%
13. N#CCC(=O)Nc1nc(-c2ccc3c(c2)OCCO3)cs1  13.1%
14. CNc1ccccc1C(=O)OC  12.3%
15. O=c1[nH]c2cc3c(cc2cc1CN(CCCO)C(=S)NCc1ccco1)OCO3  12%
16. CCC(C)(C)n1nnnc1CN1CCSCC1.Cl  12%
17. NC(N)=NC(N)=Nc1cccc2ccccc12  11.6%
18. C=CCNC(=S)NS(=O)(=O)c1cccs1  11.6%
19. O=C(CCC(=O)NC1CCCCC1)Nc1cccnc1  11.3%
20. COC(=O)c1cc(-c2ccc(Br)cc2)c2c(=O)n(C)c(=O)n(C)c2n1  11.3%
21. Cn1c(SCC(=O)N2CCCC2)nnc1-c1ccc2c(c1)OCO2  10.9%
22. CCOC(=O)c1ccc(NC(=O)CSc2nnc(C3CCCCC3)n2C)cc1  10.9%
23. COc1ccc(N2CCN(S(=O)(=O)CCNC(=O)c3ccc(Br)o3)CC2)cc1  10.6%
24. CCc1ccc(NS(=O)(=O)c2cccc3nsnc23)cc1  9.94%
25. CC(=O)Nc1ccc(NC(=O)COc2cccc3c2OC(C)(C)C3)cc1  9.26%
26. O=C(c1ccc(-c2ccccc2Cl)o1)N1CCN(c2ccccc2O)CC1  8.64%
27. O=C(Nc1ccc(S(=O)(=O)Nc2ccccn2)cc1)c1cccc(Cl)c1  8.46%
28. CC(OC(=O)c1ccccn1)C(=O)Nc1ccc2c(c1)OCCO2 (stereo not shown)  8.14%
29. CCCCN(C)C(=O)c1cn(CC)c2ccc(S(=O)(=O)N(C)C)cc2c1=O  8.08%
30. O=C(CSc1nnc(Cc2cc(=O)[nH]c(=O)[nH]2)n1-c1ccc(F)cc1)N1CCCCC1  7.82%
31. COc1ccc(-c2cc3ccccc3[nH]2)cc1  7.8%
32. COc1ccc(NC(=O)CSc2cc(C)nc3c(-c4ccccc4)cnn23)cc1  7.75%
33. COc1ccc(/C=N/NC(=O)CCc2n[nH]c(=O)[nH]c2=O)cc1O  7.12%
34. CCCCS(=O)(=O)N1CCN(C(=N)N[N+](=O)[O-])CC1  6.5%
35. O=C(NCCNC(=O)c1ccccn1)c1ccc(Cl)cc1  5.5%
36. O=C(COc1ccccc1-c1ccccc1)Nc1ccc(S(=O)(=O)NCc2ccco2)cc1  4.89%
37. CN(CC(=O)NNC(=O)c1cccnc1)S(=O)(=O)c1cc(Cl)ccc1Cl  3.78%
38. CCCN(CCC)S(=O)(=O)c1ccc(C(=O)Nc2nnc(-c3cc(OC)cc(OC)c3)o2)cc1  3.19%
39. Cc1ccc2c(c1)C(c1ccc(F)cc1)N(C(=O)C1CC1)CC(=O)N2 (stereo not shown)  2.95%
40. Cc1ccc(S(=O)(=O)N(C)C)cc1NC(=O)COC(=O)c1ccc2c(c1)OCCO2  2.61%
41. CCOC(=O)c1sc(=NC(=O)c2ccc(OC)c(OC)c2)n(C)c1C  2.13%
42. COc1cc2c(cc1NC(=O)COC(=O)CNS(=O)(=O)c1ccc(C)cc1)oc1ccccc12  1.63%
43. CC(=O)Oc1c(C(=O)c2nnc(C)o2)c(=O)n(Cc2ccccc2)c2ccccc12  1.56%
44. O=C(Cc1csc(-c2ccc(Cl)cc2)n1)Nc1cccc(S(=O)(=O)NC2=NCCC2)c1  1.53%
45. CCCCCc1nc2c(c(=O)c3ccccc3n2C)c(=O)n1C1CCCCCC1  1.32%
46. O=c1c2ccccc2c(C=Nc2cccc(S(=O)(=O)NC3=NCCCCC3)c2)c(O)n1Cc1ccccc1  0.92%
47. Cc1cccc(NC(=O)c2sccc2-n2cccc2)c1C  0.147%
48. COC(=O)[C@H](CCSC)NC(=O)NCc1ccccn1  -0.164%
49. C[C@]12CCC(=O)C=C1CC[C@@H]1C2CC[C@]2(C)C(=O)CCC12 (stereo partly shown)  -0.99%
50. O=C(Nc1ccccc1-c1ccccc1)C1CCCCC1  -1.2%
51. CCCCCC1CCC(C(=O)NNC(=S)NCC)CC1 (stereo not shown)  -1.5%
52. Cc1ccc(F)cc1NC(=O)CN1C(=O)NC2(CCCc3ccccc32)C1=O (stereo not shown)  -1.5%
53. Cc1ccc(S(=O)(=O)Nc2ccccc2C(=O)N2CCN(C)CC2)cc1  -3.2%
54. CC(C)(C)NC(=O)C(c1ccco1)N(Cc1ccc(F)cc1)C(=O)c1snc(C(N)=O)c1N (stereo not shown)  -3.3%
55. Cc1[nH]c(=O)[nH]c(=O)c1/C=N/NC(=O)[C@@H](N)CC(C)C.Cl  -4.29%
56. Cc1c(NC(=O)c2ccccc2N(C)S(=O)(=O)c2ccccc2)c(=O)n(-c2ccccc2)n1C  -4.4%
57. Nn1c(Cc2ccccc2F)nnc1SCn1nnc2ccccc2c1=O  -4.66%
58. O=C(Nc1cccc(Cl)c1)N1CCN(c2ncccn2)CC1  -5.41%
59. Cc1sc(N2C(=O)C3C4C=CC(C4)C3C2=O)c(C#N)c1C (stereo not shown)  -5.96%
60. N#Cc1c(SCC(=O)OCc2ccccc2)nsc1SCC(=O)OCc1ccccc1  -6.08%
61. O=C(c1cc2ccccc2c(=O)o1)N1CCc2ccccc2C1  -6.12%
62. CCCCn1c(SCc2ccccn2)nc2c1c(=O)n(C)c(=O)n2C  -8.02%
63. S=C(NC1CCCCC1)N1CCn2cccc2C1c1cccnc1 (stereo not shown)  -8.63%
64. Cc1ccc(C(=O)N2CCN(S(=O)(=O)c3ccccc3C#N)CC2)cc1S(=O)(=O)N1CCOCC1  -9.33%
65. CCCC(C)(C)NC(=O)CCCCC(=O)NC(C)(C)CCC  -9.49%
66. COCc1cc(C)nc(NC2CCCCC2)c1C#N  -10.8%
67. O=C(NCCCN1CCCC1=O)c1cc2ccccc2o1  -11.2%
68. COc1ccc(-c2nnc(SC3CCOC3=O)n2C2CCCCC2)cc1OC (stereo not shown)  -11.5%
69. COc1cc(C)ccc1N(CCCN1C(=O)c2cccc3cccc(c23)C1=O)C(=O)c1cccs1  -12.3%
70. O=[N+]([O-])c1ccc2nc(SCc3cn4cccnc4n3)[nH]c2c1  -14.3%
71. COc1cc(/C=N/OCC(=O)NC2CCS(=O)(=O)C2)ccc1OC(F)F (stereo not shown)  -16.1%
72. CCN1CCN(C(=O)c2ccc3c(c2)N(Cc2ccccc2)C(=O)c2ccccc2S3=O)CC1 (stereo not shown)  -16.1%
73. CC(=O)N1CCC(=NNS(=O)(=O)c2ccc(C)c([N+](=O)[O-])c2)CC1  -16.6%
74. O=C(c1cnc2ccccc2n1)N1CCN(c2ccc(C(F)(F)F)cn2)CC1  -17.1%
75. O=C(c1cc(-c2cccnc2)nc2ccc(Br)cc12)N1CCN(c2ncccn2)CC1  -19.6%
76. Fc1cccc(CCN2C(=S)NC[C@@H]2Cc2ccccc2)c1  -19.8%
77. Cl.O=C(CCS(=O)(=O)c1ccccc1)N(CCCN1CCOCC1)c1nc2c(F)cccc2s1  -21%
78. CC1CN(C(=O)c2ccc(N3CCCCC3)c([N+](=O)[O-])c2)CC(C)O1 (stereo not shown)  -21.1%
79. O=C(CCC(=O)N1CCOc2ccc(Cl)cc21)NCc1ccccc1  -21.7%
80. COCC(=O)N1CCCN(c2nc3c(C)cccc3cc2C#N)CC1  -22.2%
81. O=C(NCC(=O)N1CCCC(C(F)(F)F)C1)c1ccc(Oc2ccccc2)cc1 (stereo not shown)  -29.7%
82. Cc1cc(Cl)ccc1OCCCC(=O)N1CCN(C)CC1  -30%
83. Cc1nn2c(NCCCN(C)C)c3c(nc2c1-c1ccccc1)CCCC3  -32.2%
84. O=C(COc1ccc(Br)cc1CO)Nc1ccc(F)cc1  -32.8%
85. CCCn1c(=O)c(C(=O)NCc2cccnc2)c(O)c2ccccc21  -34.7%
86. Cc1cc(NC(=O)CN2CCC(n3nnc4cc(C(F)(F)F)ccc43)CC2)no1  -50%
87. Cc1nc(C)c(-c2ccc(SCc3cccc(F)c3)nn2)s1  -50.6%
88. N#CC1=C(Nc2ccccc2)SC=C(c2ccc(Br)cc2)N=C1N1CCOCC1  -64.7%
